# Source: ChEMBL document CHEMBL4888484, “Replenishing the malaria drug discovery pipeline: Screening and hit evaluation of the MMV Hit Generation Library 1 (HGL1) against asexual blood stage Plasmodium falciparum ,using a nano luciferase reporter read-out” (2022)
# The whole screen tested about 150,000 compounds, of which about 540 (0.36%) showed an effect of 50% or more. This is one part of the list. Where a SMILES comes first, the peptide text is derived from it. The star is where a group is joined. PhAc = O=C(Cc1ccccc1)*; NHPr = CCCN*
# Tested on: Plasmodium falciparum
# Assay: Primary screen in NF54 nanoGlo assay, in single point, at 2uM, 72h; a lower Z score goes with more inhibition
# Format: functional, Erythrocyte
# Conditions: timepoint 72 hour
SMILES,% Inhibition [%],Z score
CCC(C)(C(=O)Nc1cc(OC)cc(OC)c1)N(CC1CCCN2CCCCC12)C(C)=O (configuration not stated),-34,3.98
Cc1ccccc1NC(=O)N1CCC(n2cnc3ccc(Cl)cc3c2=O)CC1,-6,0.67
COc1cc(C)ccc1OCc1nc(C(=O)N[C@H]2CCCCNC2=O)co1,-3,0.5
O=C(Cn1ccc2ccccc2c1=O)N1CCCC[C@H]1c1ncon1,-13,1.68
Cc1cc2c(cc1C)[C@@H](NC1CC1)CCO2,-1,0.11
Cc1c(C(=O)N[C@H]2CCCNC2=O)oc2ccccc12,-12,2.27
COc1cccc(CN2CC3(CCN(C(=O)c4ccn(C)n4)CC3)CC2=O)c1,5,-0.64
CC1CCN(C(=O)c2n[nH]c3c2CN(C(=O)c2ccco2)CC3)CC1,-3,0.53
CC(=O)NCCn1c(=O)n(Cc2cccc(C)c2)c2cccnc21,-2,0.28
CCOC[C@H]1CCN(C(=O)CN2C(=O)Cc3ccccc32)C1,1,-0.14
c1ccc2cc(NC3CCCC3)ccc2c1,-2,0.21
CC(C)OC1CC(NC(=O)CCn2cccn2)C1(C)C (configuration not stated),-3,0.44
CCC1(CC)CN(C(=O)c2ncn(C)n2)c2ccccc21,-3,0.36
O=C(O)[C@H](Cc1ccco1)n1cnc(-c2ccccc2)c1-c1c[nH]cn1,4,-0.57
C[C@@H](CN1CC(c2ccccc2)(c2ccccc2)CCC1=O)N1CCOCC1,-13,2.32
O=C(Nc1cc(C(F)(F)F)c[nH]c1=O)N1CC(Cc2ccco2)C1,0,0.03
CC(=O)c1ccc(NC(=O)c2ccc(Oc3nccs3)cc2)cc1,-6,1.18
Cc1ccc2[nH]c(-c3cn(C)nc3-c3ccc4c(c3)OCCO4)nc2c1C,-4,0.83
Cc1cc(Br)ccc1N(C)C(=O)CCc1ccnn1C,-8,0.99
O=C(c1cscc1Cl)N1CC(C(F)F)C1,-7,0.67
CC1CC1C(=O)NC1CCCCC1C(C)(C)C (configuration not stated),0,0.06
Cc1ccc(Nc2nc(N)nc(CN3CCCCCCC3)n2)cc1,-5,0.66

SMILES,% Inhibition [%],Z score
CN1CCN(CC(=O)Nc2ccc([C@H]3CC[C@H](N(C)C(=O)c4ccc(Cl)cc4)CC3)cc2)CC1,12,-1.32
Cc1cc(C)n(-c2ccc(CNC(=O)c3cccc(C(F)(F)F)c3)cc2)n1,-14,1.64
Cc1cc2[nH]c(=O)[nH]c2c(NC(=O)c2ccc(CN)cc2)c1C,-13,1.24
C#CCNC(=O)c1ccc(C(N)=O)cn1,-5,0.68
O=C(COc1ccc(Br)cc1)N(Cc1ccco1)c1ccc(Cl)cc1,-24,3.23
CCCO[C@H]1CCCN(C(=O)NCC2CCC(F)(F)CC2)CC1,-1,0.09
Cc1cc2nc3c(=O)n(C4CCCCC4)c(=O)n(C4CCCCC4)c3nc2cc1N,14,-2.64
Cc1cc(Nc2ccccc2C)n2nc(-c3ccco3)nc2n1,-11,1.27
COc1ccccc1-c1nnc([C@H]2CCN(Cc3ccc4c(c3)OCO4)C2)o1,-12,1.48
CCc1oc2c(NC(=O)N[C@@H](C)c3n[nH]c(C)n3)cc(Cl)cc2c1C,7,-1.22
Cc1cccc(NC(=O)C2CCN(c3nnc(C)c4c(C)n(-c5ccc(Cl)cc5)nc34)CC2)c1C,7,-0.86
CCn1c([C@H]2CCN(S(=O)(=O)c3cc(Cl)cc(Cl)c3)C2)nc2ccncc21,4,-0.35
CC[C@@H](CNS(=O)(=O)N(C)C)Oc1ccccc1,-17,1.54
O=C(c1ccccn1)c1ccccc1Cl,-16,1.99
CNc1ncc(CN(C)C(=O)c2csc(C)n2)cn1,0,0.03
O=C1CCC(c2ccccc2)=NN1c1ccccn1,4,-0.72
Cc1cccnc1C[C@H](C)NS(=O)(=O)C(C)C,-9,1.81
CC1(c2cccnc2)NC(=O)N(CC(O)c2ccc(F)cc2)C1=O (configuration not stated),17,-2.18
CC(NC1CC(=O)N(C(C)(C)C)C1)c1ncc(Br)s1 (configuration not stated),-6,0.78
COc1ccc(N2C(=O)C3C4C=CC(C4=C4CCCC4)C3C2=O)cc1 (configuration not stated),-8,1.04
N#Cc1cccc(NCCCOc2ccc(F)cc2)c1,5,-0.85
CCO[C@H]1CN(C(=O)Cc2c(C)n[nH]c2C)C[C@@H]1O,-10,1.81

SMILES,% Inhibition [%],Z score
O=C1NCCCCCCN(C(=O)c2ccncc2)[C@H]2C[C@H](c3nc(-c4cnccn4)no3)C[C@@H]12,-3,0.3
Fc1cccc(Cl)c1Cn1nc(C2CCOCC2)nc1Cn1cnnn1,-5,0.93
Cc1cc(C)cc(N2C(=O)C3N=NN(c4cc(C)cc(C)c4)C3C2=O)c1 (configuration not stated),13,-1.44
O=S(=O)(c1ccc2c(c1)OCCO2)N1CC[C@H](Oc2ccncc2Cl)C1,-7,1.4
CCC[C@H](NC(=O)C(=O)N1CCCC1)c1nccn1C,-9,1.09
C[C@@H](CC1CCOCC1)NCc1cc(C#N)ccc1F,-1,0.09
Nc1nccnc1C(=O)NCC1(c2ccccc2)CC1,-9,0.74
CCc1ccnc(C(=O)N[C@@H](C)C2(OC)CCC2)c1,-12,1.82
CC(=O)N(CCc1ccccc1)Cc1nc(-c2cnn(C)c2)no1,-2,0.36
CCCN1C(=O)c2cc(S(=O)(=O)N3CCCC[C@@H]3CC)ccc2Oc2cccnc21,-6,1.08
COCC(=O)N(Cc1c(-c2ccccc2)nn(C)c1Oc1ccccc1)C1CC1,-5,0.92
Cn1cc(Cc2nc(C3CN4CCCCC4CO3)no2)cn1 (configuration not stated),-21,1.92
COc1cccc(O[C@@H](C)C(=O)N2CC(Oc3ccccc3C)C2)c1,-9,1.07
COC(=O)C[C@H](NC(=O)c1cccc2cc[nH]c12)C1CC1,0,0.02
Cc1nc2ccc(C(=O)NCC3(c4ccccc4)CCN(C)CC3)cc2o1,-13,1.29
N#Cc1ccc(C(=O)N(Cc2ccccc2)CC2(O)CCCC2)nc1,-3,0.44
COCCN1CCN(c2nc3c(c(=O)[nH]2)Cc2ccccc2OC3)CC1,-14,1.34
Cc1nnc2nc(-c3cccc(Cl)c3Cl)[nH]n12,-3,0.33
CCCNC(=O)CNC(=O)CNC(=O)Cc1ccccc1 (PhAc-Gly-Gly-NHPr),-5,0.78
O=C(NCc1cccnc1)N[C@H]1COc2cc(F)cc(F)c21,-9,1.65
Cc1cc(C(=O)N2CCN3C(=O)OC[C@H]3C2)c(C)o1,-4,0.64
COCCC1(NC(=O)c2ccccc2)CCN(Cc2ccccn2)CC1,-12,1.55

SMILES,% Inhibition [%],Z score
COc1ccc(CCC(=O)N(Cc2cccc(O)c2)CC2CC2)cc1Cl,-2,0.21
CN(C[C@H]1CCOC1)c1nc2ccc(Cl)cc2s1,-8,1.64
Cc1cccc(N[C@@H](C)C(=O)Nc2nnc(C)s2)c1,-24,2.77
Cc1ccc2oc(C(=O)N3CCN(CC(C)(C)O)CC3)cc2n1,-8,1.15
O=C(CCc1cc2n(n1)CCN(C(=O)c1ccc[nH]1)C2)N1CCOCC1,-14,2.61
CNc1nc(CN(Cc2nccs2)C2CC2)cs1,-4,0.79
CCN(CC)S(=O)(=O)c1ccc(NCc2ncccn2)cc1,-11,0.99
Cc1cccc(N(CC(C)(C)C)C(=O)c2c3c(nn2C)CCC3)n1,5,-0.83
CCOC(=O)N1CCN(C(=O)C[C@H]2C(=O)NCCN2Cc2ccc(F)cc2Cl)CC1,12,-1.37
C=CCC(C)(CC=C)NS(=O)(=O)c1ccc(NC(C)=O)cc1,-3,0.48
O=C(CN1CCCC[C@@H]1Cn1cncn1)N1CCc2ccccc2C1,-14,1.45
Cc1cc(F)ccc1NC(=O)c1cnc(-c2ccccc2)nc1C,-7,1.06
O=C(Cc1c(F)cccc1Cl)N1CCC(=C2CC2)CC1,-14,1.59
Cc1ccc(OCc2cc(C)no2)nc1,-2,0.36
Cc1ccc(CN2CCN(Cc3c[nH]c4ccccc34)C[C@@H]2CCO)o1,-20,1.76
COC[C@H](C)n1c(CCCC(=O)N2CCOC(C)(C)C2)nc2cccnc21,-5,0.62
O=C(N[C@@H](C(F)F)C1CCCCC1)c1cc2n(n1)CCO2,-2,0.28
CCn1c(CN2CCC(C(=O)OC)CC2)nc2cc(S(=O)(=O)N3CCCCC3)ccc21,-3,0.72
Fc1ccc(-c2nc(-c3ccc(-n4ccnc4)nc3)no2)cc1,-17,1.77
COc1ccc(CCC(=O)N2CCCN(C(=O)c3sc4cccc(F)c4c3C)CC2)cc1,4,-0.71
